Out of some 310,000 compounds screened, about 14,000 (4.5%) showed an effect of 50% or more. The effect is printed as a negative number. Some of the results follow.
molecular target: human ether-à-go-go-related gene (hERG) potassium channel (human, UniProt Q12809); experiment: primary screen, population patch clamp on CHO cells stably expressing hERG
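Further: peak tail current of the secondary pulse compared with the same well before compound.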

human ether-à-go-go-related gene (hERG) potassium channel, sequence (Q12809 whole entry, looked up): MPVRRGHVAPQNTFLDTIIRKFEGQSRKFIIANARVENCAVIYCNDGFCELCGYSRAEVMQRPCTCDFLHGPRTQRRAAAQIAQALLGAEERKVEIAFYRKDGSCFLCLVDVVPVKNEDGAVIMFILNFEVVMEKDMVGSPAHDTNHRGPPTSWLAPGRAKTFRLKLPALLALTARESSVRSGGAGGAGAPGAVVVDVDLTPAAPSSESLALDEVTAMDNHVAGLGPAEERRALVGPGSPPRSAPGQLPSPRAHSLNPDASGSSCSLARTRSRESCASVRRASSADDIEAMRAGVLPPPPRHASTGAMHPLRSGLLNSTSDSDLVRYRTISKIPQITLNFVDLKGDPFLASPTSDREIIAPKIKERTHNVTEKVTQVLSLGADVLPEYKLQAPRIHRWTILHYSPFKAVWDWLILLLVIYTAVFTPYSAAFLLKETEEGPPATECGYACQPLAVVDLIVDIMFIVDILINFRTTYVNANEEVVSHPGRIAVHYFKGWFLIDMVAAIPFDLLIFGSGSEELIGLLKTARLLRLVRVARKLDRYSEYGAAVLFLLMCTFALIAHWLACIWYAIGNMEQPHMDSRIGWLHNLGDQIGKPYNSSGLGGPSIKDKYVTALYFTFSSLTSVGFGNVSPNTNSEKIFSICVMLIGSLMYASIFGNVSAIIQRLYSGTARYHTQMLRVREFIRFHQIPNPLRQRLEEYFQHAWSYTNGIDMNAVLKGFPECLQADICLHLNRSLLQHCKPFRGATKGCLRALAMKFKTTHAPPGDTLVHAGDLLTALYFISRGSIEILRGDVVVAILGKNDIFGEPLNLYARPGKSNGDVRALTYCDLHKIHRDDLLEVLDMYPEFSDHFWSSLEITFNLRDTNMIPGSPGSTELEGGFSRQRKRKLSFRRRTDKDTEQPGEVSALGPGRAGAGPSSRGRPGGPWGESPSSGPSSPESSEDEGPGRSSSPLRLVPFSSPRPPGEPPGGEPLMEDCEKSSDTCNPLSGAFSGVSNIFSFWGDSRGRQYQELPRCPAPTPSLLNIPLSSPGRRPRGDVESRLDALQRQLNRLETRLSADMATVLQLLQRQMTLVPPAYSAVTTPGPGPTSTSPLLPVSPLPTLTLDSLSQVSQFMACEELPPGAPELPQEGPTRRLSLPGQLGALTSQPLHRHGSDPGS

| SMILES | hERG current change (%, negative = inhibition) at 10uM |
| --- | --- |
| COc1ccc(NS(=O)(=O)c2cc(NC(=O)c3cc(F)c(F)c(F)c3F)ccc2N2CCCC2)cc1 | -1.13% |
| Cc1cccn2c(=O)c(/C=C(\C#N)S(=O)(=O)c3ccc(Cl)cc3)c(N3CCC(C(N)=O)CC3)nc12 | -77.8% |
| CC1CN(C(=O)CCC(=O)N2CCCCC2)c2cc(Cl)ccc2O1 (stereo not shown) | -2.56% |
| O=C(N/N=C/c1cccc([N+](=O)[O-])c1)c1cc[n+](CCO)cc1.[Cl-] | 19.9% |
| CC(Oc1ccccc1)c1ccnc2nc(N3CCOCC3)nn12 (stereo not shown) | -2.09% |
| Cc1scc(-c2n[nH]c(=S)n2C(C)c2ccccc2)c1C (stereo not shown) | -7.97% |
| O=C(Nc1ccc(Cl)cc1)c1cc(Br)ccc1OCC(=O)N1CCOCC1 | 5.76% |
| O=C(O)c1ccc(OCc2cn3ccccc3n2)cc1 | -5.59% |
| COc1ccccc1NC(=S)NC(=O)/C=C/c1cccs1 | 18.3% |
| O=c1cc(O)c2ccccc2n1Cc1ccccc1Cl | 8.82% |
| COCCN1CCN(C(=O)c2ccc3oc(CCCc4ccccc4)nc3c2)CC1 | 0.632% |
| Cc1cccc(NC(=O)N2C[C@H]3C[C@@H](C2)c2cccc(=O)n2C3)c1 | 5.3% |
| CC(C)CNC(=O)c1ccc(C2SCC(=O)N2Cc2ccccc2)cc1 (stereo not shown) | -16.6% |
| O=C1c2ccccc2NC2CCCCC12 (stereo not shown) | 9.29% |
| CC(C)(C)C1=C(C#N)C(c2cc3c(cc2Br)OCO3)C(C#N)=C(N)O1 (stereo not shown) | 10.2% |
| O=C1NC(=O)C2(Cc3ccccc3N3CCOCC32)C(=O)N1c1ccccc1 (stereo not shown) | -6.1% |
| COCCCNCCOCCOc1c(OC)cccc1OC | 3.46% |
| CC(NC(=O)c1ccco1)C(=O)O (stereo not shown) | -15.9% |
| CC(C)NS(=O)(=O)c1ccc(NC(=O)C(C)OC(=O)CCC2CCCC2)cc1 (stereo not shown) | 7.06% |
| Cc1ccc(C)c(N2CCN(C3CCCC(C)C3)CC2)c1 (stereo not shown) | -30.6% |
| O=C(Nc1cccc(Cl)c1)c1ccc(NC2=NC3CS(=O)(=O)CC3S2)cc1 (stereo not shown) | 2.64% |
| CCN(CCO)C(=O)C12CCC(C)(C(=O)C1)C2(C)C (stereo not shown) | -9.66% |
| O=C(COc1cc2oc(=O)cc(-c3ccccc3)c2cc1Cl)NCc1ccccn1 | -1.74% |
| CCCCNC(=O)[C@@](CC)(ONc1ccccc1C(F)(F)F)c1cccc2ccccc12 | 6.14% |
| CC(=O)N1c2ccc(S(=O)(=O)NCC3CCC(C(=O)N4CCCCC4)CC3)cc2CC1C (stereo not shown) | 12.2% |

Source: paper PMC4336329 (PLoS ONE, 2015)
